# Experimental data as given in PubChem BioAssay AID686978 (National Center for Advancing Translational Sciences (NCATS), 2013).
# About 64,000 (15%) of roughly 420,000 compounds were called active. Inconclusive means that the source gave no clear call. Such entries were picked first, then a sample of the others. The call rests on the fitted dose curve; in most records, active means well fitted inhibition curve with a large enough effect; inconclusive means small, poorly fitted or top-dose-only effect; inactive means flat fitted curve, though single readings scatter. Potencies of inconclusive entries are left out as doubtful fits.
# Assay: qHTS for Inhibitors of human tyrosyl-DNA phosphodiesterase 1 (TDP1): qHTS in cells in absence of CPT; further: nearly all actives have a fitted effect of over 55% in size
# Conditions: DT40 Tdp1-/- hTDP1 cells, no CPT, ATP luminescence, 48 h; activity change, negative = growth inhibition: at 46.2 µM (top of the series)
# Summary of the method: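 Compound effects on proliferation are scored in DT40 Tdp1-/-;hTDP1 cells in the absence of CPT. ATP levels (CellTiter-Glo luminescence) are recorded after a ≥48 hr, 37 °C incubation.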
# On the % scale 0 is the no-effect control and ±100 the full control effect; potency means the concentration at half of the fitted maximal effect; tags describe the fitted curve by direction and shape.
SMILES,Potency,"activity change, negative = growth inhibition"
COc1ccc(NC(=O)COc2ccc(-c3nn(C)c(=O)c4ccccc34)cc2)cc1,"inconclusive [inhibitor, single point]",–
Cc1nn(-c2ccccc2)c2c1C1(C(=O)N3c4c(cccc41)C(C)CC3(C)C)C(C#N)=C(N)O2 (configuration not stated),"inconclusive [inhibitor, single point]",–
CCCn1c(/C=N/Nc2nc3ccccc3[nH]2)nc2ccccc21,"inconclusive [inhibitor, single point]",–
O=C(CSc1nnc(CNC(=O)c2c(F)cccc2F)o1)c1ccc(Cl)cc1,"inconclusive [inhibitor, single point]",–
CCCCOc1ccc(C(=O)Nc2cccc(-c3nc4cccnc4s3)c2)cc1,"inconclusive [inhibitor, full curve]",–
O=C(NCCc1csc(-c2ccccc2)n1)c1c(F)cccc1F,"inconclusive [inhibitor, single point]",–
O=C(Nc1cccc([N+](=O)[O-])c1)c1ccc([N+](=O)[O-])o1,active: 3.66 µM,–
O=C(NC1CCCC1)c1cnn2c(C(F)(F)F)cc(-c3ccc4c(c3)OCO4)nc12,active: 16.4 µM,–
Cc1ccc(C(=O)C2=C(O)C(=O)N(Cc3cccnc3)C2c2ccc(Br)cc2)o1 (configuration not stated),"inconclusive [inhibitor, single point]",–
Cc1cc2nc(-c3ccc(Cl)cc3)c(Cc3cccc(Cl)c3)n2c(C)c1Br,inactive,–
CCOC(=O)C1CCN(c2ncnc3c2oc2ccccc23)CC1,active: 16.4 µM,–
CSc1cccc(NC(=O)CN2C(=O)COc3ccc(Cl)cc32)c1,active: 20.6 µM,–
CC(C)=CCC1C(=O)N(c2ccccc2)N(c2ccccc2)C1=O,active: 3.76 µM,–
CC(NC(=O)c1ccc2c(c1)CCN2S(=O)(=O)c1ccc(Cl)cc1)c1ccccc1 (configuration not stated),"inconclusive [inhibitor, partial curve]",–
CCOc1ccc(NC(=O)CSc2nc3c(oc4ccccc43)c(=O)n2-c2ccccc2C)cc1,active: 23.1 µM,–
C/C(=N\Nc1ccc2nncn2n1)c1ccccn1,active: 4.61 µM,–
COc1ccc(N2CCCn3c2nc2c3c(=O)n(CCc3ccccc3)c(=O)n2C)cc1,active: 14.6 µM,–
Nc1nccc(/C=C/c2c(Cl)cccc2Cl)n1,"inconclusive [inhibitor, partial curve, poor fit]",–
CCCCc1cc(=O)oc2cc(OCC(=O)NC3CCN(Cc4ccccc4)CC3)ccc12,"inconclusive [inhibitor, single point]",–
Cc1ccc(OCC(=O)NC(C)c2ccccc2)cc1C (configuration not stated),"inconclusive [inhibitor, single point]",–
COc1ccc(C[C@H]2CN3C(=NC[C@@H]3Cc3ccccc3)N2CCNC(=O)CCC2CCCCC2)cc1,active: 16.4 µM,–
Cn1c(=O)[nH]c(=O)c2c1nc([N+](=O)[O-])n2Cc1ccccc1,active: 1.03 µM,–
COC(=O)c1ccc2c(=O)[nH]c(CN3c4ccccc4CC3C)nc2c1 (configuration not stated),"inconclusive [inhibitor, partial curve]",–
Cc1ccc(NC(=O)NCCc2c(C)nn(C)c2C)cc1Cl,active: 23.1 µM,–

SMILES,Potency,"activity change, negative = growth inhibition"
COc1ccc(-c2nc3ccc(N4CCCC4)cc3c(=O)[nH]2)cc1OC,active: 20.6 µM,–
COc1ccc(Br)cc1CN(C)C(C)C(=O)Nc1cccc(C(C)=O)c1 (configuration not stated),"inconclusive [inhibitor, single point]",–
COC(CNC(=O)CCc1c(C)nc2c(c(C)nn2-c2ccc(C)cc2)c1C)OC,"inconclusive [inhibitor, single point]",–
CC[C@@]12C(=O)N(c3cccc(Br)c3)C(=O)N1[C@H](c1ccc(F)cc1)[C@@H]1C(=O)N(C3CCCCC3)C(=O)[C@@H]12,"inconclusive [inhibitor, single point]",–
O=C(c1ccoc1)N1CCN(c2cc(-c3ccco3)nc3cc(-c4ccccc4)nn23)CC1,active: 7.31 µM,–
COc1ccc(-c2csc3ncnc(N4CCN(c5ccccc5O)CC4)c23)cc1,active: 16.4 µM,–
O=c1c(-c2ccco2)[n+]([O-])c2ccccc2n1OCc1c(F)cccc1F,–,inconclusive: -30.3% [inhibitor]
O=c1cc(-c2ccccc2Cl)oc2c([N+](=O)[O-])c(O)cc(O)c12,active: 25.9 µM,–
Cc1ccccc1-c1nnc(SCc2ccccc2)o1,inactive,–
CCCCCCn1c(=O)n2n(c1=O)[C@@H]1CN(S(=O)(=O)c3ccc(C)cc3)C[C@]1(O)[C@@H](OC(=O)Nc1cccs1)C2,active: 25.9 µM,–
Cc1cc(C(=O)NCc2nc(-c3cccc(NC(=O)c4cc(C)oc4C)c3)oc2C)nc(C)n1,active: 20.6 µM,–
CCCOc1ccc(C=Nc2ccc(OC)c(S(=O)(=O)N3CCOCC3)c2)c(O)c1,inactive,–
CC(C)C[C@@H](CNCC(=O)[C@H](Cc1ccccc1)NC(=O)c1[nH]cnc1C(=O)N[C@@H](C)CN)NC(=O)c1nc[nH]c1C(=O)N[C@@H](C)C(=O)O,inactive,–
COc1ccc(S(=O)(=O)N2CCN(c3ccccc3)CC2)cc1OC,"inconclusive [inhibitor, full curve, poor fit]",–
Cc1ccc(OCc2nnc(NC(=O)c3cccnc3)s2)cc1,inactive,–
O=C(O)C1CC=CCC1C(=O)NC1CCCCC1 (configuration not stated),inactive,–
CCOC(=O)C1=C(C)NC2=C(C(=O)c3ccccc32)C1c1cccc2ccccc12 (configuration not stated),active: 11.6 µM,–
COc1ccc(S(=O)(=O)N2CCN(c3ccccc3)CC2)cc1,inactive,–
CCOc1ccccc1-c1cc(-c2ccc(OC)cc2)nc2c1c(=O)n(C)c(=O)n2C,–,inconclusive: -33.6% [inhibitor]
Oc1ccc2c(c1)oc1cc(O)ccc12,"inconclusive [inhibitor, partial curve]",–
O=C(N/N=C/c1cccc([N+](=O)[O-])c1O)c1cccs1,active: 1.03 µM,–
CC1(C)Oc2ccc3ccc(=O)oc3c2[C@@H](O)[C@@H]1O,"inconclusive [inhibitor, partial curve]",–
Cc1c(NC(=O)c2cc(-c3ccccc3)nc3ccccc23)c(=O)n(-c2ccccc2)n1C,"inconclusive [inhibitor, single point]",–
CCOC(=O)c1c(S(=O)(=O)N2CCCC(C(=O)Nc3cccc(Cl)c3)C2)c(C)n(C)c1C (configuration not stated),"inconclusive [inhibitor, single point]",–

SMILES,Potency,"activity change, negative = growth inhibition"
Cc1ccc(-c2nnc(N3CCN(C(=O)CSc4ncn[nH]4)CC3)c3ccccc23)cc1,"inconclusive [inhibitor, single point]",–
CC(C)NC(=O)C(=O)NCCCN1CCOCC1,inactive,–
CC1CN(C(=O)C(Sc2ccccc2)c2ccccc2)CC(C)O1 (configuration not stated),"inconclusive [inhibitor, single point]",–
Cc1cc(CNC(=O)COc2cc(F)ccc2[N+](=O)[O-])c2ccccc2n1,active: 11.6 µM,–
Cc1cc(-c2csc(NC(=O)c3ccc(=O)[nH]c3)n2)c(C)n1Cc1ccco1,"inconclusive [inhibitor, partial curve]",–
C(=N\N=C\c1cccnc1)/c1cccnc1,inactive,–
O=C(Nc1ccccc1)C1=C[C@@H](c2ccc(Br)cc2)C[C@@H](OCc2ccc(CO)cc2)O1,"inconclusive [inhibitor, single point]",–
CCN(CC(=O)NCc1ccc(Cl)cc1)C(=O)CSc1ccc(Br)cc1,"inconclusive [inhibitor, single point]",–
O=c1c(-c2cc3ccccc3o2)[n+]([O-])c2ccccc2n1OCc1ccccn1,active: 14.6 µM,–
O=C(NCc1ccccc1Cl)c1ccc2nc[nH]c2c1,"inconclusive [inhibitor, single point]",–
O=C1CN(C(=S)NC(=O)c2ccc(-c3ccccc3)cc2)CCN1,inactive,–
NC(=O)c1ccc(NC(=O)COC(=O)CC23CC4CC(CC(Br)(C4)C2)C3)cc1,inactive,–
CC1(C)CC(N2CCN(Cc3ccccc3)CC2)=CC(=[N+]2CCCCC2)C1,active: 0.0461 µM,–
CCC[C@@H](CNC)NC[C@H](Cc1ccccc1)NCCCCc1ccccc1,active: 11.6 µM,–
CCOC(=O)C1=C(C)NC(C)=C(C(=O)OCCNC(=O)c2cccnc2)C1c1cccc([N+](=O)[O-])c1 (configuration not stated),"inconclusive [inhibitor, single point]",–
CCN1CCN(c2ccc(NC(=O)CC3OC(=O)c4ccccc43)cc2C)CC1 (configuration not stated),inactive,–
CSc1ccccc1C(=O)OCC(=O)NC1CCCCCCC1,"inconclusive [inhibitor, single point]",–
CC(C)CCSc1cc(NCCO)c([N+](=O)[O-])c2nonc12,"inconclusive [inhibitor, single point]",–
Cc1cn(C2CC(O)C(O)C(CO)O2)c(=O)[nH]c1=O (configuration not stated),inactive,–
O=C1CCCN1CCCN1CC(C(=O)N(CCO)Cc2ccccc2)CCC1=O (configuration not stated),inactive,–
CC(C)(CN1CCC(Cc2ccccc2)CC1)NS(=O)(=O)c1ccccc1,"inconclusive [inhibitor, partial curve]",–
CCOc1ccc(CCNC(=O)C2CC(C)=CCC2C(=O)O)cc1OCC (configuration not stated),"inconclusive [inhibitor, single point]",–
O=C(COC(=O)/C=C/c1ccc(F)cc1)NCc1ccco1,inactive,–
C#CCN(Cc1nc(N2CCOCC2)c2ccc(Cl)cc2n1)Cc1ccco1,"inconclusive [inhibitor, single point]",–
